Experimental findings from PMC9911399, “Two distinct binding modes provide the RNA-binding protein RbFox with extraordinary sequence specificity” are described below.

Changes are numbered by the printed parent chain; changes in the protein carry UniProt numbers. This is one part of the list.

The labels stand for the following.
T1: RBFOX1 RRM (Homo sapiens, UniProt Q9NWB1 109-208)
T1 sequence: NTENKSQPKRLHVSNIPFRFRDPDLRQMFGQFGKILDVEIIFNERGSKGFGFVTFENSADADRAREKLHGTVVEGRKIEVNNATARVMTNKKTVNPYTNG

B1: UUAAGGC (DNA:RNA)
RNA: GGGAGACCGGAAUUCAGAUUGUCCUUAAGGCUUAAAUCCCGUCGUAGCCACCA
DNA 1: CAATCTGAATTCCGGTCTCCC
DNA 2: TGGTGGCTACGACGGGATT
B2: CUCGCGU (DNA:RNA)
RNA: B1 RNA with U25C, A27C, A28G, G29C, C31U
DNA 1: CAATCTGAATTCCGGTCTCCC
DNA 2: TGGTGGCTACGACGGGATT
B3: UUCCGCC (DNA:RNA)
RNA: B1 RNA with A27C, A28C, G30C
DNA 1: CAATCTGAATTCCGGTCTCCC
DNA 2: TGGTGGCTACGACGGGATT
B4: GUAAAUG (DNA:RNA)
RNA: B1 RNA with U25G, G29A, G30U, C31G
DNA 1: CAATCTGAATTCCGGTCTCCC
DNA 2: TGGTGGCTACGACGGGATT
B5: CAGAAGU (DNA:RNA)
RNA: B1 RNA with U25C, U26A, A27G, G29A, C31U
DNA 1: CAATCTGAATTCCGGTCTCCC
DNA 2: TGGTGGCTACGACGGGATT
B6: UCGCAUU (DNA:RNA)
RNA: B1 RNA with U26C, A27G, A28C, G29A, G30U, C31U
DNA 1: CAATCTGAATTCCGGTCTCCC
DNA 2: TGGTGGCTACGACGGGATT
B7: AUGGCUC (DNA:RNA)
RNA: B1 RNA with U25A, A27G, A28G, G29C, G30U
DNA 1: CAATCTGAATTCCGGTCTCCC
DNA 2: TGGTGGCTACGACGGGATT
B8: CAAGGUG (DNA:RNA)
RNA: B1 RNA with U25C, U26A, A28G, G30U, C31G
DNA 1: CAATCTGAATTCCGGTCTCCC
DNA 2: TGGTGGCTACGACGGGATT
B9: CACUUAG (DNA:RNA)
RNA: GGGAGACCGGAAUUCAGAUUGUCCCACUUAGUUAAAUCCCGUCGUAGCCACCA
DNA 1: CAATCTGAATTCCGGTCTCCC
DNA 2: TGGTGGCTACGACGGGATT
B10: AUACUUG (DNA:RNA)
RNA: B9 RNA with C25A, A26U, C27A, U28C, A30U
DNA 1: CAATCTGAATTCCGGTCTCCC
DNA 2: TGGTGGCTACGACGGGATT
B11: CCUCUCU (DNA:RNA)
RNA: B9 RNA with A26C, C27U, U28C, A30C, G31U
DNA 1: CAATCTGAATTCCGGTCTCCC
DNA 2: TGGTGGCTACGACGGGATT
B12: UUUUAGC (DNA:RNA)
RNA: B1 RNA with A27U, A28U, G29A
DNA 1: CAATCTGAATTCCGGTCTCCC
DNA 2: TGGTGGCTACGACGGGATT
B13: GUGAGUG (DNA:RNA)
RNA: B1 RNA with U25G, A27G, G30U, C31G
DNA 1: CAATCTGAATTCCGGTCTCCC
DNA 2: TGGTGGCTACGACGGGATT
B14: UAUCAAU (DNA:RNA)
RNA: B9 RNA with C25U, C27U, U28C, U29A, G31U
DNA 1: CAATCTGAATTCCGGTCTCCC
DNA 2: TGGTGGCTACGACGGGATT
B15: GUUAGCU (DNA:RNA)
RNA: B1 RNA with U25G, A27U, G30C, C31U
DNA 1: CAATCTGAATTCCGGTCTCCC
DNA 2: TGGTGGCTACGACGGGATT
B16: CUUGAUA (DNA:RNA)
RNA: B9 RNA with A26U, C27U, U28G, U29A, A30U, G31A
DNA 1: CAATCTGAATTCCGGTCTCCC
DNA 2: TGGTGGCTACGACGGGATT
B17: AUCAAAC (DNA:RNA)
RNA: B1 RNA with U25A, A27C, G29A, G30A
DNA 1: CAATCTGAATTCCGGTCTCCC
DNA 2: TGGTGGCTACGACGGGATT
B18: GGAUGGU (DNA:RNA)
RNA: B1 RNA with U25G, U26G, A28U, C31U
DNA 1: CAATCTGAATTCCGGTCTCCC
DNA 2: TGGTGGCTACGACGGGATT
B19: GGGUUAG (DNA:RNA)
RNA: B9 RNA with C25G, A26G, C27G
DNA 1: CAATCTGAATTCCGGTCTCCC
DNA 2: TGGTGGCTACGACGGGATT
B20: UCGCGAU (DNA:RNA)
RNA: B1 RNA with U26C, A27G, A28C, G30A, C31U
DNA 1: CAATCTGAATTCCGGTCTCCC
DNA 2: TGGTGGCTACGACGGGATT
B21: CGCGCGC (DNA:RNA)
RNA: B9 RNA with A26G, U28G, U29C, A30G, G31C
DNA 1: CAATCTGAATTCCGGTCTCCC
DNA 2: TGGTGGCTACGACGGGATT
B22: UUUCCAU (DNA:RNA)
RNA: B1 RNA with A27U, A28C, G29C, G30A, C31U
DNA 1: CAATCTGAATTCCGGTCTCCC
DNA 2: TGGTGGCTACGACGGGATT
B23: GAUUAUC (DNA:RNA)
RNA: B9 RNA with C25G, C27U, U29A, A30U, G31C
DNA 1: CAATCTGAATTCCGGTCTCCC
DNA 2: TGGTGGCTACGACGGGATT
B24: CUCUAGC (DNA:RNA)
RNA: B9 RNA with A26U, U29A, A30G, G31C
DNA 1: CAATCTGAATTCCGGTCTCCC
DNA 2: TGGTGGCTACGACGGGATT
B25: UCUUCGG (DNA:RNA)
RNA: B9 RNA with C25U, A26C, C27U, U29C, A30G
DNA 1: CAATCTGAATTCCGGTCTCCC
DNA 2: TGGTGGCTACGACGGGATT
B26: UGGCGUG (DNA:RNA)
RNA: B1 RNA with U26G, A27G, A28C, G30U, C31G
DNA 1: CAATCTGAATTCCGGTCTCCC
DNA 2: TGGTGGCTACGACGGGATT
B27: UAGGACC (DNA:RNA)
RNA: B1 RNA with U26A, A27G, A28G, G29A, G30C
DNA 1: CAATCTGAATTCCGGTCTCCC
DNA 2: TGGTGGCTACGACGGGATT
B28: AUUCUGA (DNA:RNA)
RNA: B1 RNA with U25A, A27U, A28C, G29U, C31A
DNA 1: CAATCTGAATTCCGGTCTCCC
DNA 2: TGGTGGCTACGACGGGATT
B29: UGAGACA (DNA:RNA)
RNA: B1 RNA with U26G, A28G, G29A, G30C, C31A
DNA 1: CAATCTGAATTCCGGTCTCCC
DNA 2: TGGTGGCTACGACGGGATT
B30: UUUAUCU (DNA:RNA)
RNA: B1 RNA with A27U, G29U, G30C, C31U
DNA 1: CAATCTGAATTCCGGTCTCCC
DNA 2: TGGTGGCTACGACGGGATT
B31: AAGGUCU (DNA:RNA)
RNA: B9 RNA with C25A, C27G, U28G, A30C, G31U
DNA 1: CAATCTGAATTCCGGTCTCCC
DNA 2: TGGTGGCTACGACGGGATT

The target in the assay is T1, RBFOX1 RRM. Description: EMSA; HiTS-Eq, 1 nM pool, 10 min; buffer printed only for the single-RNA assays: 10 mM Tris pH 7.5, 150 mM NaCl, 3.4 mM EDTA, 0.001% NP-40, 30 C. Particulars: tags: His6 N-terminal (pET28a); label: 5' 32P. The method in brief: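 Relative association constants, normalised to the cognate motif, were derived by comparing read counts of each RNA species with those of the control reaction. The RNA sequenced was the free fraction, separated by 8% native PAGE after a 10 min equilibration in 50 µL of 1 nM 5′-radiolabelled RNA (7 randomized nucleotides) with increasing concentrations of purified wild-type or mutant RbFox RRM.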
On the technique in general: Mobility shift assays separate free from complexed probe on a gel.
B1: the binding signal was 0.00877 KA relative to UGCAUGU.

For the molecule B2, the binding signal was 0.0127 KA relative to UGCAUGU. In the case of B3, the binding signal is 0.00489 KA relative to UGCAUGU. The same measure for B4: 0.00894 KA relative to UGCAUGU; for B5: 0.00381 KA relative to UGCAUGU; for B6: 0.013 KA relative to UGCAUGU. The same measure for B7: 0.0138 KA relative to UGCAUGU. The same measure for B8: 0.00971 KA relative to UGCAUGU. In the case of B9, the binding signal was 0.00567 KA relative to UGCAUGU. The same measure for B10: 0.00872 KA relative to UGCAUGU; for B11: 0.00874 KA relative to UGCAUGU; for B12: 0.0132 KA relative to UGCAUGU. For the molecule B13, the binding signal is 0.0201 KA relative to UGCAUGU. The same measure for B14: 0.00404 KA relative to UGCAUGU. B15: the binding signal was 0.00988 KA relative to UGCAUGU. The same measure for B16: 0.00758 KA relative to UGCAUGU; for B17: 0.000367 KA relative to UGCAUGU; for B18: 0.0187 KA relative to UGCAUGU.

Consider B19, for which the binding signal was 0.0153 KA relative to UGCAUGU.

Consider B20, for which the binding signal is 0.00751 KA relative to UGCAUGU. Take B21: the binding signal is 0.0126 KA relative to UGCAUGU.

In the case of B22, the binding signal is 0.00307 KA relative to UGCAUGU. The same measure for B23: 0.00889 KA relative to UGCAUGU; for B24: 0.00326 KA relative to UGCAUGU. B25: the binding signal was 0.013 KA relative to UGCAUGU. Turning to B26, the binding signal is 0.0332 KA relative to UGCAUGU. The same measure for B27: 0.00329 KA relative to UGCAUGU; for B28: 0.0136 KA relative to UGCAUGU; for B29: 0.00824 KA relative to UGCAUGU. B30: the binding signal is 0.00873 KA relative to UGCAUGU. As for B31, the binding signal is 0.0111 KA relative to UGCAUGU.
